Reference: US6780414B2 (priority 1998, dated 2004)

System: S. flexneri-induced PMN transepithelial migration
Test: PMN transepithelial migration assay across T84 cell monolayers
Conditions: basolateral surface pretreated with 300 μM cadaverine, 30 min, before infection (FIG. 4)

## NCCCCCN [cadaverine, 1,5-diaminopentane]
  ability of S. flexneri to induce PMN transepithelial migration: substantial decrease
